From patent US20230265479A1 (priority 2020, published 2023)

How the values were obtained:
Format in all cases: cell-based, human
[1] = system: Firefly Luciferase reporter gene driven by the C3P3-G2 system in HEK-293 cells
[2] = system: Firefly Luciferase reporter gene, conventional nuclear expression (pCMVScript-Luciferase) in HEK-293 cells
[3] = system: Firefly Luciferase reporter gene driven by the C3P3-G1 system in HEK-293 cells

## O=C1Nc2ccc3ncsc3c2/C1=C/c1cnc[nH]1 [CAS 608512-97-6]
[1]
  Effect on Firefly Luciferase expression (in words): dose-dependent increase
[2]
  Effect on Firefly Luciferase expression (in words): no detectable effect
[3]
  Effect on Firefly Luciferase expression (in words): dose-dependent increase
